Data from the supplement of paper PMC7125110.
± gives the standard error. Variants at the background level are over-represented here.

B1: glmS ribozyme (parent)
chain: AUAAAAGCGCCAGAACUACAGAAAUGUAGUUGACGAGGAGGAGGUUUAUCGAAUUUUCGGCGGAUGCCUCCAAA

Variants of: B1
Experiment: self-cleavage kobs at 10000 uM GlcN6P; higher = faster cleavage; RNA array
Conditions: with glucosamine-6-phosphate
Outline: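 Tracking of barcoded ribozyme variants used a hybridised Cy3 probe at 37 °C, after in situ transcription by E. coli RNA polymerase on sequenced MiSeq chips. The flowed solution held 40 μM to 10 mM glucosamine-6-phosphate in HEPES/KCl/Mg(OAc)2 buffer, and imaging ran over ~14 h. kobs was taken from exponential decay fits of normalised per-tile medians, and kcat and KM from weighted Michaelis–Menten fits.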

Variant	self-cleavage kobs at 10000 uM GlcN6P [s⁻¹]
C10G A14U C16A U54G C61U G62U	< 1e-05
A14U A36G A64G C70G	< 1e-05
G29A G43U G51A	< 1e-05
G7C G32U G38C	< 1e-05
U30G G35C A52U C67G	< 1e-05
U31C G32C A64C C68A	< 1e-05
A33C C50A C67G C68G	7.88e-05 ± 2.1e-05
A12G U30G U47C U49C	< 1e-05
G7U G9A G35C A42U C58U G62A	< 1e-05
U47C A48C C67G	< 1e-05
C11G G41A G43C	< 1e-05
A12G G29U G35C	< 1e-05
C16A U30C C61G	< 1e-05
A36G U54G G63C	< 1e-05
G9U C34G G43U U57A	< 1e-05
C58A C61A C70U	< 1e-05
A36G C50U C58U	< 1e-05
G13U A33C G63A	< 1e-05
A39C U56G G59A	< 1e-05
G13U A14G C61U C70G	< 1e-05
G44A U46A	0.000375 ± 6.2e-05
G63U C68A	< 1e-05

Variant	self-cleavage kobs at 10000 uM GlcN6P [s⁻¹]
G32U G44U G63C	< 1e-05
G7U C11G C68U	< 1e-05
A6U U46A C58U U65C G66U	< 1e-05
C50G A53U C71G	0.000148 ± 4e-05
A15U A52U C68A	< 1e-05
G13A A42G	0.000882 ± 0.00023
A15G G29U A36U G38U U69C	< 1e-05
A14U C16U G51C C67G	< 1e-05
G44A G51U U54C G62C	< 1e-05
C11A G38C C58A	< 1e-05
C10A A12G G13A	< 1e-05
A39C U55A A64U U65G	< 1e-05
A53U U57G G60C	< 1e-05
A15U G21U	0.00395 ± 0.00079
A6U G29U G35C C50U U56C	< 1e-05
C34U G35U A48C	< 1e-05
G13C A15U C58G	0.000104 ± 1.7e-05
C8A G38U G40U A42C C58G	< 1e-05
A42G A48U U55G	0.000404 ± 8.1e-05
A36C G41A A48C C67U	< 1e-05
C11U C50G C70G	3.88e-05 ± 1.4e-05
A6U C16U A39G G44U C50U G60U	< 1e-05

Variant	self-cleavage kobs at 10000 uM GlcN6P [s⁻¹]
G38A A39C U57G	< 1e-05
C10U A12G G38U	< 1e-05
C10G A42C U49G A52G U69G C70U	< 1e-05
U30A G38A C70U	< 1e-05
U56C G59U C70G	< 1e-05
C61G C68G U69A	< 1e-05
A6U U30C G32U	< 1e-05
A12U A14C A36C	< 1e-05
G7C G32U G41A U45C G62C	< 1e-05
G43C U46A A48C C58U	< 1e-05
C8G G9U U30A A42G	< 1e-05
G41C U57G	< 1e-05
G41C U49A C70A	< 1e-05
G32U U57G	5.4e-05 ± 1.4e-05
A12U A52C A53U C70G	< 1e-05
C8U G13A U46G A48C U65G	< 1e-05
A14U A48C U56G C68A	< 1e-05
G7A G40C U49G G60U	< 1e-05
A12U A33U C67U	0.000146 ± 2.9e-05
A36G G41C U56C C67G C68G	< 1e-05
A33U G38U U54C	< 1e-05
